Experimental data reported in the BET-seq Pho4 binding data (Le et al. 2018).
The list shows a part of the results. Values were computed here from the reads of four pooled replicates and scatter widely.

target: T1, Pho4 (S. cerevisiae) (UniProt P07270); experiment: relative binding free energy (BET-seq); higher = weaker binding; details: reference: library average
T1 sequence: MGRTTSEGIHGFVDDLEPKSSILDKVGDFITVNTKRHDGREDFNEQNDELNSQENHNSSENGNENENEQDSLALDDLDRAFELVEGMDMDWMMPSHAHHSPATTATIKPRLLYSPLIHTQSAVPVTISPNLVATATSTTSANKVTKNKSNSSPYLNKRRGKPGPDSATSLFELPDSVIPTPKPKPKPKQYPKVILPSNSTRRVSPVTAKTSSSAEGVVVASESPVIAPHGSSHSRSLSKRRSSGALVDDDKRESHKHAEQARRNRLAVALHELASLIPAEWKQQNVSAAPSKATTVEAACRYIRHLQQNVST

Row | Sequence | relative binding free energy
1 | TAGACCACGTGAGGTT | 0.29 kcal/mol
2 | ATGTGCACGTGGGTAT | -0.21 kcal/mol
3 | GGAGTCACGTGTATTA | 0.15 kcal/mol
4 | GTAAGCACGTGGTTGC | 0 kcal/mol
5 | CGCGTCACGTGGAGTT | 0.2 kcal/mol
6 | GTTGCCACGTGGACGG | 0.05 kcal/mol
7 | CATAACACGTGTGTGT | -0.02 kcal/mol
8 | AATTTCACGTGTGGGG | 0.25 kcal/mol
9 | GGTCTCACGTGTTCGT | 0.21 kcal/mol
10 | TTGTTCACGTGGAGGA | 0.24 kcal/mol
11 | TTAACCACGTGGGTAT | -0.14 kcal/mol
12 | AGTGGCACGTGTTGAA | -0.11 kcal/mol
13 | TGTAACACGTGTCGTG | -0.08 kcal/mol
14 | TTGCGCACGTGTAGTG | -0.14 kcal/mol
15 | GGCTTCACGTGCGCGG | 0.11 kcal/mol
16 | AGTGGCACGTGTTTGC | -0.05 kcal/mol
17 | AAAGGCACGTGGTTGT | -0.16 kcal/mol
18 | TAGTGCACGTGAAAAG | 0.23 kcal/mol
19 | TAGAGCACGTGAGGGA | 0.13 kcal/mol
20 | AGGGGCACGTGCAATT | -0.16 kcal/mol
21 | TGGAACACGTGAGGCG | 0.13 kcal/mol
22 | GGGGACACGTGAGGAA | 0.21 kcal/mol
23 | GGGGGCACGTGTCGCA | -0.21 kcal/mol
24 | TGGGCCACGTGATGTT | 0.01 kcal/mol
25 | TTAATCACGTGGGTTA | -0.08 kcal/mol

Row | Sequence | relative binding free energy
26 | TAAGACACGTGGTTAT | -0.06 kcal/mol
27 | CCATTCACGTGGGTGG | 0.26 kcal/mol
28 | ATGCGCACGTGTATGG | -0.11 kcal/mol
29 | AGGGTCACGTGTGCAT | -0.04 kcal/mol
30 | ATAATCACGTGTTTCT | 0.15 kcal/mol
31 | TGATGCACGTGGACGG | -0.12 kcal/mol
32 | TTTTACACGTGCAGGA | 0.07 kcal/mol
33 | GGTGGCACGTGTCTAG | 0.04 kcal/mol
34 | GTGGGCACGTGACGTG | 0.05 kcal/mol
35 | GTTGTCACGTGCGGGC | 0.14 kcal/mol
36 | GAGGGCACGTGATTTA | 0.16 kcal/mol
37 | TGATACACGTGTCGGT | 0.09 kcal/mol
38 | AGAAACACGTGTTGGT | 0.17 kcal/mol
39 | GGGCTCACGTGTCTGT | 0.25 kcal/mol
40 | GTTGTCACGTGGCGTA | 0.02 kcal/mol
41 | AACGTCACGTGCGGGG | 0.03 kcal/mol
42 | AAAGGCACGTGAAGGA | 0.1 kcal/mol
43 | ATGGGCACGTGGTCCG | -0.26 kcal/mol
44 | ACGGTCACGTGTGGGG | 0.05 kcal/mol
45 | GGGTTCACGTGTAGTT | 0.43 kcal/mol
46 | GTTGTCACGTGTGGAG | 0.19 kcal/mol
47 | CGGGACACGTGTCGGG | 0.1 kcal/mol
48 | ATGCGCACGTGGTGGG | -0.15 kcal/mol
49 | TGTTCCACGTGTGCGG | 0.13 kcal/mol
50 | TGTAACACGTGCTTTT | -0.13 kcal/mol

Row | Sequence | relative binding free energy
51 | CGTGTCACGTGGGCGG | -0.15 kcal/mol
52 | AGTAGCACGTGGTGGG | -0.14 kcal/mol
53 | AGTCGCACGTGTTAGT | -0.08 kcal/mol
54 | ATTTACACGTGAAGAG | 0.17 kcal/mol
55 | GTCTTCACGTGTTTCA | 0.38 kcal/mol
56 | GTAAGCACGTGAGGAT | 0.09 kcal/mol
57 | GGTGCCACGTGGAAAG | 0.08 kcal/mol
58 | TGGTTCACGTGCTAGT | 0.15 kcal/mol
59 | GGGGGCACGTGGTTGC | -0.22 kcal/mol
60 | GGCGGCACGTGGGTAC | -0.22 kcal/mol
61 | TGTACCACGTGGGGCT | -0.17 kcal/mol
62 | AGGTTCACGTGCGGAG | 0.18 kcal/mol
63 | TTGTTCACGTGTTCGC | 0.39 kcal/mol
64 | GGTTGCACGTGACTAG | 0.17 kcal/mol
65 | GCTGGCACGTGTGAGG | 0.02 kcal/mol
66 | GGTGGCACGTGTCGCT | 0 kcal/mol
67 | TATTTCACGTGTAGGC | 0.3 kcal/mol
68 | CGCGGCACGTGGGTAT | -0.26 kcal/mol
69 | GAGTTCACGTGGTACT | 0.24 kcal/mol
70 | CTTATCACGTGGTGTG | 0.12 kcal/mol
71 | CTGTTCACGTGCTGTG | 0.08 kcal/mol
72 | TCGGTCACGTGCGTAT | 0.03 kcal/mol
73 | TTGTACACGTGTAGAC | 0.21 kcal/mol
